According to US11529425B2, “Immunoconjugates comprising signal regulatory protein alpha” (DINGFU BIOTARGET CO., LTD., priority 2017, dated 2022):
“Also recorded” adds a separate entry of the source. Like-named read-outs stand apart in the source and are kept apart here.

How the values were obtained:
[1] = tested on: A375 cell (expressing CD47) and A375-PD-L1 tumor cells (expressing both CD47 and PD-L1); experiment: Tumor binding in excess erythrocyte antigen sink, flow cytometry; conditions: 15-fold excess of RBCs
Method: An important concern about CD47-based therapeutics is the expression of the target on the surface of erythrocyte, which has the potential to act as a large antigen sink and cause hematological toxicity. […] The binding of hu56di-SIRPα to tumor cell in excess human erythrocytes antigen sink was therefore assessed by flow cytometry. A375 cell (expressing CD47) and A375-PD-L1 tumor cells (expressing both CD47 and PD-L1) were mixed with a 15-fold excess of RBCs, and then incubated with 20 μg/ml hu56di-SIRPα, SIRPα-Fc IgG1 or AB6.12 IgG1 or isotype control (human IgG1) at 4° C. for 30 min. Then the cells were washed to remove unbound proteins and incubated with an anti-hlgG Fc gamma specific PE antibody at 4° C. for 20 min. The cells were analyzed by flow cytometry (Life Technology). The gate of erythrocytes was assessed by anti-human CD235a (eBiosciences Cat #12-9987-80).
Then the cells were washed to remove unbound proteins and incubated with an anti-hlgG Fc gamma specific PE antibody at 4° C. for 20 min. The cells were analyzed by flow cytometry (Life Technology). The gate of erythrocytes was assessed by anti-human CD235a (eBiosciences Cat #12-9987-80).

[2] = tested on: human erythrocytes (RBC); experiment: RBC binding in tumor cell / 15-fold excess RBC mix, flow cytometry; conditions: tumor cells mixed with 15-fold excess of RBCs, 20 μg/ml, FIG. 6a-6e
[3] = molecular target: T1, CD47-muFc (Homo sapiens, UniProt Q08722); experiment: Binding kinetics by bio-layer inferometry (BLI), Octet K2; conditions: 25° C.
T1 construct: made in house; host or cells: transiently transfected FreeStyle 293F cells (HEK293)
T1 sequence (Q08722 with tags, fused parts or gaps): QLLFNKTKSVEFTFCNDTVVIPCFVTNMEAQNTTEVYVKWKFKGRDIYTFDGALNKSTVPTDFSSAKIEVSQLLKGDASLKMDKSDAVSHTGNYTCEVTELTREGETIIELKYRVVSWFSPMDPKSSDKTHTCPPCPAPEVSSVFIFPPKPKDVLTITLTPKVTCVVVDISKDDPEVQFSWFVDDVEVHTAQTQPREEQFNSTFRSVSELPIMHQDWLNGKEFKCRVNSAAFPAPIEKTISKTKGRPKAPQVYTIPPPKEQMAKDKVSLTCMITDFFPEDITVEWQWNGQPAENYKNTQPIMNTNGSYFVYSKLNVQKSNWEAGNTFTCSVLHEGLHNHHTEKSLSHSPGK
Description: The amino acid sequence of the human CD47 extracellular domain (i.e., the 19th residue to the 141th residue in Q08722) was obtained according to the amino acid sequence of human CD47 (Q08722) in the protein database Uniprot. According to the amino acid sequence of the constant region of murine immunoglobulin gamma1 (P01868) in the protein database Uniprot, the amino acid sequence of muFc (i.e., the 112th residue to the 213th residue in P01868) was obtained. The DNAworks Online Tool (helixweb.nih.gov) was used to design the corresponding coding DNA sequence to obtain the CD47-muFc fusion protein gene, and the DNA fragment was obtained by artificial synthesis. The synthetic gene sequences were cloned into commercial vector pcDNA4/myc-HisA (Invitrogen, V863-20) by Fermentas HindIII and EcoRI. The recombinant plasmids were then sequenced for confirmation, thereby obtaining the plasmid DNA of pcDNA4-CD47-muFc. The amino acid sequences of CD47-muFc is as set forth in SEQ ID NO: 61, and the polynucleotide sequence encoding it is as set forth in SEQ ID NO: 62.
Binding kinetics of a hu56di-SIRPα immunoconjugate or control antibodies (SIRPα-Fc IgG1 and AB6.12 IgG1) were determined by the bio-layer inferometry (BLI) method using Octet K2 system (FortéBio). All experiments were performed at 25° C. under a PBS buffer containing 0.5% BSA and 0.5% Tween 20, pH 7.2. […]

[4] = tested on: mouse RBCs; experiment: Mouse RBC binding, MC38 tumor cells mixed with 15-fold excess of mouse RBCs
Method: Similarly, MC38 tumor cells were mixed with a 15-fold excess of mouse RBCs, and then incubated with 20 μg/ml, a-mPD-L1, mSIRPα-Fc, CV1-Fc, mPD-L1-CV1, mPD-L1-mSIRPα or isotype control (human IgG1) at 4° C. for 30 min. Then the cells were washed to remove unbound proteins and incubated with an anti-hlgG Fc gamma specific PE antibody at 4° C. for 20 min. The cells were analyzed by flow cytometry (Life Technology). The gate of erythrocytes was assessed by anti-mouse RBC antibody (abcam Cat #ab106101). In FIG. 6g, serial numbers of 1, 2, 3 and 4 correspond to isotype control (human IgG1), mSIRPα-Fc, a-mPD-L1 and mPD-L1-mSIRPα. In FIG. 6h, serial numbers of 1, 2, 3 and 4 correspond to isotype control (human IgG1), CV1-Fc, a-mPD-L1 and mPD-L1-CV1.

[5] = tested on: MC38 tumor cells; conditions: for anti-tumor efficacy, big dose: FIG. 8e and 8f
[6] = tested on: MC38 tumor cells; experiment: Combination with chemotherapy (doxorubicin) in MC38 tumor model; conditions: doxorubicin intratumorally on day 11, mPD-L1-mSIRPα 1 day later
[7] = tested on: RBC; experiment: Hemin in serum of tumor-bearing mice (RBC immune lysis); type: in vivo; conditions: compared to a-mCD47 and mSIRPα-Fc treatment, FIG. 8d

B1: AB6.12 IgG1: anti-CD47 monoclonal antibody, AB6.12-HC + AB6.12-LC according to WO2014123580A, Group 20 (antibody)
heavy: QMQLVQSGAEVKKTGSSVKVSCKASGFNIKDYYLHWVRQAPGQALEWMGWIDPDQGDTEYAQKFQDRVTITRDRSMSTAYMELSSLRSEDTAMYYCNAAYGSSSYPMDYWGQGTTVTVSS[not shown - human IgG1 constant region]
light: NIQMTQSPSAMSASVGDRVTITCKASQDIHRYLSWFQQKPGKVPKHLIYRANRLVSGVPSRFSGSGSGTEFTLTISSLQPEDFATYYCLQYDEFPYTFGGGTKVEIKRTVAAPSVFIFPPSDEQLKSGTASVVCLLNNFYPREAKVQWKVDNALQSGNSQESVTEQDSKDSTYSLSSTLTLSKADYEKHKVYACEVTHQGLSSPVTKSFNRGEC
B1 was tested, and the “preference of binding, tumor cells versus RBC” value ([1]; FIG. 6a) was “bound tumor cells and RBCs at the same time”, the “binding to RBC (MFI)” value [2] was “strong binding to RBC” and the “kon” value ([3]; association 40 seconds) was 651000 M⁻¹ s⁻¹. For the same molecule, the “kdis” value ([3]; dissociation 300 seconds) was 0.000129 s⁻¹.

B2: hu56-Fc6-SIRPα: heterodimer of hu56-Fc9 and hu56-Fc6-SIRPα (SIRPα at C-terminus of Fc6), Group 10 (protein)
chain 1: QVQLVESGGGLVQPGGSLRLSCAASGKMSSRRCMAWFRQAPGKERERVAKLLTTSGSTYLADSVKGRFTISRDNSKNTVYLQMNSLRAEDTAVYYCAADSFEDPTCTLVTSSGAFQYWGQGTLVTVSSEPKSSDKTHTCPPCPAPELLGGPSVFLFPPKPKDTLMISRTPEVTCVVVDVSHEDPEVKFNWYVDGVEVHNAKTKPREEQYNSTYRVVSVLTVLHQDWLNGKEYKCKVSNKALPAPIEKTISKAKGQPREPQVYTLPPCRDELTKNQVSLWCLVKGFYPSDIAVEWESNGQPENNYKTTPPVLDSDGSFFLYSALTVDKSRWQQGNVFSCSVMHEALHNHYTQKSLSLSPGK
chain 2: QVQLVESGGGLVQPGGSLRLSCAASGKMSSRRCMAWFRQAPGKERERVAKLLTTSGSTYLADSVKGRFTISRDNSKNTVYLQMNSLRAEDTAVYYCAADSFEDPTCTLVTSSGAFQYWGQGTLVTVSSEPKSSDKTHTCPPCPAPELLGGPSVFLFPPKPKDTLMISRTPEVTCVVVDVSHEDPEVKFNWYVDGVEVHNAKTKPREEQYNSTYRVVSVLTVLHQDWLNGKEYKCKVSNKALPAPIEKTISKAKGQPREPQVYTLPPSRDELTKNQVSLSCGVKGFYPSDIAVEWESNGQPENNYKTTPPVLDSDGSFKLASKLTVDKSRWQQGNVFSCSVMHEALHNHYTQKSLSLSPGKGGGGSGGGGSGGGGSEE[not shown - about 120 residues]
B2 was tested, and the “binding to tumor cells (MFI)” value ([1]; 20 μg/ml, tumor cells expressing dual antigen (A375-PD-L1), FIG. 6a/6b) was “stronger binding to tumor cells than AB6.12 IgG1” and the “binding to RBC (MFI)” value [2] was “almost do not bind to RBC”.

B3: mPD-L1-CV1: heterodimer of mPD-L1-Fc9 and CV1-Fc6, Group 15 (protein)
chain 1: QVQLQQSGPGLVKPSQTLSLTCAISGDSVSSTKAAWYWIRQSPSRGLEWLGRTYFRSKWYNDYADSVKSRLTINPDTSKNQFSLQLKSVSPEDTAVYYCARGQYTAFDIWGQGTMVTVSSGILGSGGGGSGGGGSGGGGSQSALIQPASVSGSPGQSITISCTGTSSDVGGYDLVSWYQQYPGQAPRLIIYEVIKRPSGISDRFSGSKSGNTASLTISGLQAEDEADYYCCSYAGRRLHGVFGGGTQLTVL[not shown - human IgG1 Fc with T366W K409A (EU numbers)]
chain 2: EEELQIIQPDKSVLVAAGETATLRCTITSLFPVGPIQWFRGAGPGRVLIYNQRQGPFPRVTTVSDTTKRNNMDFSIRIGNITPADAGTYYCIKFRKGSPDDVEFKSGAGTELSVRAKPSGGGGSDKTHTCPPCPAPELLGGPSVFLFPPKPKDTLMISRTPEVTCVVVDVSHEDPEVKFNWYVDGVEVHNAKTKPREEQYNSTYRVVSVLTVLHQDWLNGKEYKCKVSNKALPAPIEKTISKAKGQPREPQVYTLPPSRDELTKNQVSLSCGVKGFYPSDIAVEWESNGQPENNYKTTPPVLDSDGSFKLASKLTVDKSRWQQGNVFSCSVMHEALHNHYTQKSLSLSPGK
With B3 the “binding to mouse RBC” value ([4]; MC38 cells with 15-fold excess of mouse RBCs, 20 μg/ml, FIG. 6g/6h) was “stronger binding to RBC than mPD-L1-mSIRPα; also recorded: comparable binding to RBC with CV1-Fc” and the “anti-tumor efficacy, big dose” value [5] was “no therapeutic difference”.

B4: mPD-L1-mSIRPα: heterodimer of mPD-L1-Fc9 (anti-mouse PD-L1 ScFv) and mouse SIRPα-Fc6, Group 6 (protein)
mPD-L1-Fc9 (anti-mouse PD-L1 …: B3 chain 1
mSIRPα-Fc6: KELKVTQPEKSVSVAAGDSTVLACTLTSLLPVGPIRWYRGVGPSRLLIYSFAGEYVPRIRAVSDTTKRNNMDFSIRISAVTPADAGIYYCVKFQKGSSEPDTEIQSGGGTEVYVLAGGGGSDKTHTCPPCPAPELLGGPSVFLFPPKPKDTLMISRTPEVTCVVVDVSHEDPEVKFNWYVDGVEVHNAKTKPREEQYNSTYRVVSVLTVLHQDWLNGKEYKCKVSNKALPAPIEKTISKAKGQPREPQVYTLPPSRDELTKNQVSLSCGVKGFYPSDIAVEWESNGQPENNYKTTPPVLDSDGSFKLASKLTVDKSRWQQGNVFSCSVMHEALHNHYTQKSLSLSPGK
With B4 the “survival, combination with doxorubicin” value ([6]; FIG. 9) was “prolonged survival of tumor-bearing mice”, the “tumor growth, combination with doxorubicin” value ([6]; compared to isotype control and either agent alone) was “further significantly inhibited tumor growth” and the “hemin in serum (RBC immune lysis)” value [7] was “protected RBC from immune lysis”. The “safety inferred from mouse RBC binding” value ([4]; inferred from FIG. 6g/6h) was “better safety than mPD-L1-CV1 and mSIRPα-Fc”, the “anti-tumor efficacy, big dose” value [5] was “no therapeutic difference” and the “survival of tumor-bearing mice” value ([5]; intraperitoneally administered (systemic), FIG. 8c) was “prolonged the survival of tumor-bearing mice”. For the same molecule, the “tumor growth (tumor volume)” value ([5]; intraperitoneally administered (systemic), compared to isotype control and mixture of mPD-L1 antibody with mSIRPα-Fc, FIG. 8b) was “significantly slowed tumor growth”, the “tumor growth (tumor volume)” value ([5]; intratumorally administered, compared to isotype control, mPD-L1 antibody and mSIRPα-Fc, FIG. 8a) was “significantly inhibited tumor growth” and the “anti-tumor efficacy, small dose” value ([5]; small dose, FIG. 8g) was “better than mPD-L1-CV1”.
